# Experimental data taken from PubChem BioAssay AID588453 (National Center for Advancing Translational Sciences (NCATS), 2011).
# Several values for one entry are separate records, joined by “and”; a condition that tells them apart may be missing. Equal values may be shown once. About 4,000 (1%) of roughly 390,000 compounds were called active. Inconclusive means that the source gave no clear call. Such entries were picked first, then a sample of the others. Calls come from the whole dose curve; as a rule, active = well fitted inhibition curve with a large enough effect; inconclusive = small, poorly fitted or top-dose-only effect; inactive = no such curve, though single readings can be large or run the other way. A potency beside an inconclusive call is a rough fit, not a confirmed value.
# Target: Thioredoxin reductase 1, cytoplasmic (Rattus norvegicus) (UniProt O89049)
# UniProt O89049, sequence (O89049 whole entry, looked up): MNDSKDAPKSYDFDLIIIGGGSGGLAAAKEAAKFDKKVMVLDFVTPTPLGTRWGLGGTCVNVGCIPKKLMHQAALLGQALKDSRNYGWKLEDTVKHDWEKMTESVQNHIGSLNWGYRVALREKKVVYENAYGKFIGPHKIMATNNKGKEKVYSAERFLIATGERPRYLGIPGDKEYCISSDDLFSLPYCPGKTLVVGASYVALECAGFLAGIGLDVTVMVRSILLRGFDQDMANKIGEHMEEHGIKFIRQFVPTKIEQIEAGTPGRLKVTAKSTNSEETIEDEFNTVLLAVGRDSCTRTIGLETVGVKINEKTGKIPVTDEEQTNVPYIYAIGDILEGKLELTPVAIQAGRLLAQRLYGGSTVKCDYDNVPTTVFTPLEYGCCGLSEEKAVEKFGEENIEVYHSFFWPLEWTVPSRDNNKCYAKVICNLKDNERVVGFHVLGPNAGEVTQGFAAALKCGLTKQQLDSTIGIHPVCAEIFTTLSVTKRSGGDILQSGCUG
# Experiment: qHTS Assay for Inhibitors of Mammalian Selenoprotein Thioredoxin Reductase 1 (TrxR1): qHTS; note: nearly all actives have a fitted effect of over 65% in size
# Settings: recombinant rTrxR1, NADPH fluorescence consumption, selenite substrate; series mostly up to 114 µM; activity change, negative = inhibition: at the top concentration
# Summary of the method: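 Rat TrxR1 (90 nM in the dispensed reagent) was pre-reduced with 400 uM NADPH for 5 min at room temperature, then incubated with compound for 15 min. After 400 uM selenite was added, NADPH fluorescence (Ex 340/Em 450 nm) was followed for 8 min.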
# % is set by controls: 0 for no effect and ±100 for the full control effect; potency is the fitted concentration of half-maximal effect; tags give direction and shape of the fitted curve.
Structure (SMILES),Potency,"activity change, negative = inhibition"
CC(C)(C)NC(=O)C(c1ccncc1)N(Cc1ccco1)C(=O)c1ccc(-c2ccccc2)[nH]1 (stereo not drawn),"inconclusive: 31.6 µM [inhibitor, single point]",
O=C(NC1CCCCCC1)c1ccc(CS(=O)Cc2ccccc2Cl)o1 (stereo not drawn),"inconclusive: 70.8 µM [inhibitor, partial curve, poor fit]",
COCc1cc(C)n(CC(=O)Nc2ccc(Cl)cc2Cl)c(=O)c1C#N,"inconclusive: 89.1 µM [inhibitor, single point]",
Cc1ccc(NC(=O)C2(c3ccc([N+](=O)[O-])cc3)CCCC2)cc1,,inactive: 24.8%
CCCN(CCc1ccccc1)C1CCc2c(O)cccc2C1 (stereo not drawn),"inconclusive: 37.7 µM [inhibitor, single point]",
CCCNC(=O)C(Cc1ccccc1)NC(=O)c1ccccc1 (stereo not drawn),,inactive: 22.6%
N.N.N.N.N.N.N.N.N.N.N.N.N.N.O.O.[Ru+4].[Ru+5].[Ru+5],"inconclusive: 1.68 µM [inhibitor, full curve]",
COC(=O)c1cn(NC(=O)c2ccc(OC)c(OC)c2)c(=O)c2ccccc12,"inconclusive: 3.55 µM [inhibitor, single point]",
Cc1cc(O)c(C(c2ccccc2Cl)N2CCN(c3ccccc3)CC2)c(=O)n1Cc1ccco1 (stereo not drawn),"inconclusive: 7.94 µM [inhibitor, partial curve, poor fit]",
Cc1nc(C#N)nc(Oc2ccccc2)c1Cl,,inactive: 0.744%
NC(N)=N/N=C/c1ccc(Cl)c(Cl)c1,"inconclusive: 89.1 µM [inhibitor, partial curve, poor fit]",
O=C(CSc1oc(-c2ccco2)nc1S(=O)(=O)c1ccc(Cl)cc1)c1ccc(Cl)cc1,"inconclusive: 35.5 µM [inhibitor, partial curve]",
CCOc1ccccc1NC(=O)CC1Nc2ccccc2NC1=O (stereo not drawn),,inactive: -55.7%
COc1cccc(C2C(C(=O)c3ccc(C)o3)=C(O)C(=O)N2CCN2CCOCC2)c1 (stereo not drawn),"inconclusive: 56.2 µM [inhibitor, single point]",
Cc1cccc(N2C(S)=C(C#N)C(=O)NC2c2cccs2)c1 (stereo not drawn),,inactive: -10.1%
COc1ccc(OC)c(NC(=S)NC(=O)c2ccc(Br)o2)c1,,inactive: 22.7%
Cc1ccc2c(c1)c1c(c(=O)n(Cc3ccccc3)c(=O)n1CC(=O)Nc1ccccc1C)n2C,,inactive: 13.9%
CC1=NN(c2cccc(C(=O)O)c2)C(=O)/C1=C\C=C\c1ccco1,"inconclusive: 39.8 µM [inhibitor, partial curve]",
CCOC(=O)C1=C(C)NC(=S)NC1c1ccc(-c2ccc(Cl)cc2)o1 (stereo not drawn),"inconclusive: 79.4 µM [inhibitor, partial curve, poor fit]",
Cn1c(=O)c2c(nc(CN3CCCCC3)n2Cc2c(F)cccc2Cl)n(C)c1=O,,inactive: 14.8% [at 57.1 µM]
O=C(O)c1ccccc1-c1ccccc1C(=O)NCc1ccco1,"inconclusive: 44.7 µM [inhibitor, partial curve]",
COc1ccc(-n2c(SCC(=O)c3ccc[nH]3)nnc2-c2ccccc2)cc1,,inactive: -20.7%
CCSC1=C(C#N)C(=O)n2c1cc1c2CCCC1,"inconclusive: 89.1 µM [inhibitor, partial curve, poor fit]",

Structure (SMILES),Potency,"activity change, negative = inhibition"
CCOC(=O)c1cc2c(=O)[nH]c(C(Cl)(Cl)Cl)nc2o1,"inconclusive: 31.6 µM [inhibitor, partial curve]",
CSCCCN1CCC(n2nccc2NC(=O)CCCc2ccccc2)CC1,,inactive: 24%
Cc1c(C(=O)N2CCN(Cc3ccccc3)CC2)sc2ncnc(N3CCOCC3)c12,"inconclusive: 50.1 µM [inhibitor, single point]",
CN(C)c1ccc(/C=N/NC(=O)Cn2nnc3ccccc32)cc1,"inconclusive: 79.4 µM [inhibitor, partial curve, poor fit]",
COc1ccc(C(C)=O)cc1COC(=O)c1cnc(Cl)c(Cl)c1,"inconclusive: 8.91 µM [inhibitor, partial curve]",
CCCCn1c(-c2ccc(Br)cc2F)nc2c1c(=O)[nH]c(=O)n2CC(C)C,,inactive: 13.7%
COc1ccc(/C(N)=N/OC(=O)Cc2ccccc2[N+](=O)[O-])cc1,"inconclusive: 89.1 µM [inhibitor, single point]",
CC1CN(C(=O)c2ccc(-c3cccc(C(F)(F)F)c3)o2)CC(C)O1 (stereo not drawn),"inconclusive: 56.2 µM [inhibitor, partial curve, poor fit]",
CCCC1=[N+](CC(C)=O)CCn2c(C)ccc21,"inconclusive: 5.01 µM [inhibitor, full curve, poor fit]",
Cc1nn(CCc2n[nH]c(=S)n2C2CCCCC2)c(C)c1Br,"inconclusive: 10 µM [inhibitor, partial curve, poor fit]",
N#CC1=C2SCN(c3ccccc3)CN2C(=O)CC1c1c(Cl)cccc1Cl (stereo not drawn),"inconclusive: 11.2 µM [inhibitor, partial curve] and inconclusive: 63.1 µM [inhibitor, partial curve, poor fit]",
COc1ccc(N2CSC3=C(C#N)C(c4cc(OC)c(OC)cc4OC)CC(=O)N3C2)c(OC)c1 (stereo not drawn),"inconclusive: 12.6 µM [inhibitor, partial curve]",
COc1cccc(/C(O)=C2/C(=O)C(=O)N(Cc3cccnc3)C2c2ccco2)c1 (stereo not drawn),"inconclusive: 50.1 µM [inhibitor, partial curve]",
COc1cc(NS(=O)(=O)c2ccc(NC(=S)NC(=O)c3ccc(F)c(F)c3)cc2)nc(OC)n1,"inconclusive: 39.8 µM [inhibitor, partial curve]",
CNCc1ccccc1Sc1cc(O)ccc1O,"inconclusive: 11.2 µM [inhibitor, partial curve, poor fit]",
Cc1ccc(Cn2nc(C)cc2C(=O)Nc2ccc(Cl)cc2)cc1,,inactive: 15.3% [at 57.1 µM]
Cc1cc(C(=O)COC(=O)c2ccccc2NCCO)c(C)n1CC1CCCO1 (stereo not drawn),"inconclusive: 70.8 µM [inhibitor, single point]",
c1cc2c3c(c1)CCCN3CCC2,,inactive: 8.83%
CCOC(=O)C1CCCN(C(=O)Cn2cnc3c2c(=O)n(C)c(=O)n3C)C1 (stereo not drawn),,inactive: 1.7% [at 57.1 µM]
CCOC(=O)CC(=O)CSc1nc2c(c(C)c1C#N)CCC2,"inconclusive: 25.1 µM [inhibitor, partial curve]",
COC(=O)c1cc(=O)n(-c2ccccc2)c(=Nc2ccccc2)s1,"inconclusive: 12.6 µM [inhibitor, partial curve]",
Cc1ccc(S(=O)(=O)CNC(=S)c2cccc(Cl)c2)cc1,active: 14.1 µM,
COc1ccc2oc(=O)c(C(=O)Nc3ccccc3O)cc2c1,,inactive: 24.9%

Structure (SMILES),Potency,"activity change, negative = inhibition"
COc1ccc(N2C(=O)CC(Sc3nc4ccccc4s3)C2=O)cc1 (stereo not drawn),,inactive: 1.9% [at 57.1 µM]
CCCOC(=O)c1c(NC(=O)C(C)Sc2nc(-c3ccccc3)cc(C(F)(F)F)n2)sc(C(=O)N(C)C)c1C (stereo not drawn),,inactive: 21.5%
O=C(Nc1ccccc1F)c1ccc2c(Cl)c3c(nc2c1)CCC3,,inactive: 0.152%
O=C(NC(=S)Nc1ccc(N2CCOCC2)cc1)c1cncc(Br)c1,"inconclusive: 7.08 µM [inhibitor, full curve, poor fit]",
O=C1CCCC2=C1C(c1ccccc1)C1C(=O)c3ccccc3C1=N2 (stereo not drawn),"inconclusive: 15.8 µM [inhibitor, single point]",
CCCCc1cc(=O)oc2cc(C)cc(OCC(=O)O)c12,,inactive: 60.2% [at 57.1 µM]
COc1cc(-c2n[nH]c(=S)n2-c2ccccc2C(F)(F)F)cc(OC)c1OC,"inconclusive: 5.01 µM [inhibitor, partial curve]",
CCC(C)c1ccc(OCC(=O)NNC(=O)C2CCCCC2)cc1 (stereo not drawn),,inactive: 18.5%
COC(=O)C1=C(C)NC(=O)/C1=C\c1ccc2c(c1)OCO2,"inconclusive: 56.2 µM [inhibitor, partial curve, poor fit]",
Fc1ccc(Br)cc1C1C=C(c2cccnc2)Nc2ncnn21 (stereo not drawn),"inconclusive: 79.4 µM [inhibitor, single point]",
COCCN(C(=O)CSc1nc2ccccc2s1)c1c(N)n(Cc2ccccc2)c(=O)[nH]c1=O,,inactive: -23.4%
O=C(c1ccco1)N1CCCC(N2CCN(c3cccc(C(F)(F)F)c3)CC2)C1 (stereo not drawn),"inconclusive: 7.94 µM [inhibitor, full curve]",
COc1ccc(-c2c(NC(=O)C(C)C)n(C)c3ccccc3c2=O)cc1,"inconclusive: 89.1 µM [inhibitor, single point]",
O=C(CCN1CCOCC1)c1ccc(N2CCCCC2)cc1,"inconclusive: 12.6 µM [inhibitor, partial curve, poor fit]",
CCN(CC)C(=O)c1[nH]cnc1C(=O)Nc1ccc(Cl)cc1,"inconclusive: 79.4 µM [inhibitor, single point]",
O=C(CS(=O)(=O)c1ccc(C(F)(F)F)cn1)NNC(=O)c1ccccc1,"inconclusive: 89.1 µM [inhibitor, partial curve, poor fit]",
CCCCCc1c(C)c(C#N)c2nc3ccccc3n2c1-n1ccnc1C,"inconclusive: 89.1 µM [inhibitor, single point]",
CCCCSc1nnc(-c2c[nH]c3ccccc23)n1C,,inactive: 8.12% [at 57.1 µM]
OCC1CCCC(n2cnc3c(=S)nc[nH]c32)O1 (stereo not drawn),"inconclusive: 50.1 µM [inhibitor, partial curve, poor fit]",
Cc1ccc(C(=O)N/C(=C\c2ccc(-c3ccccc3[N+](=O)[O-])o2)C(=O)NCCCN(C)C)cc1,"inconclusive: 79.4 µM [inhibitor, single point]",
C=CCOc1ccc(C2/C(=C(\O)c3ccc(F)cc3)C(=O)C(=O)N2CCCN(C)C)cc1 (stereo not drawn),active: 35.5 µM,
Cc1ccc(/C=C2\SC(=S)N(C3CCS(=O)(=O)C3)C2=O)o1 (stereo not drawn),active: 15.8 µM,
